Measured values reported in article PMC4336329 (PLoS ONE, 2015).
Screen size: about 310,000 compounds; about 2,200 (0.71%) showed an effect of 50% or more. The effect is printed as a negative number. This is one part of the list.

Target: human ether-à-go-go-related gene (hERG) potassium channel (human, UniProt Q12809)
Assay: primary screen, population patch clamp on CHO cells stably expressing hERG

Sequence of human ether-à-go-go-related gene (hERG) potassium channel (Q12809 whole entry, looked up): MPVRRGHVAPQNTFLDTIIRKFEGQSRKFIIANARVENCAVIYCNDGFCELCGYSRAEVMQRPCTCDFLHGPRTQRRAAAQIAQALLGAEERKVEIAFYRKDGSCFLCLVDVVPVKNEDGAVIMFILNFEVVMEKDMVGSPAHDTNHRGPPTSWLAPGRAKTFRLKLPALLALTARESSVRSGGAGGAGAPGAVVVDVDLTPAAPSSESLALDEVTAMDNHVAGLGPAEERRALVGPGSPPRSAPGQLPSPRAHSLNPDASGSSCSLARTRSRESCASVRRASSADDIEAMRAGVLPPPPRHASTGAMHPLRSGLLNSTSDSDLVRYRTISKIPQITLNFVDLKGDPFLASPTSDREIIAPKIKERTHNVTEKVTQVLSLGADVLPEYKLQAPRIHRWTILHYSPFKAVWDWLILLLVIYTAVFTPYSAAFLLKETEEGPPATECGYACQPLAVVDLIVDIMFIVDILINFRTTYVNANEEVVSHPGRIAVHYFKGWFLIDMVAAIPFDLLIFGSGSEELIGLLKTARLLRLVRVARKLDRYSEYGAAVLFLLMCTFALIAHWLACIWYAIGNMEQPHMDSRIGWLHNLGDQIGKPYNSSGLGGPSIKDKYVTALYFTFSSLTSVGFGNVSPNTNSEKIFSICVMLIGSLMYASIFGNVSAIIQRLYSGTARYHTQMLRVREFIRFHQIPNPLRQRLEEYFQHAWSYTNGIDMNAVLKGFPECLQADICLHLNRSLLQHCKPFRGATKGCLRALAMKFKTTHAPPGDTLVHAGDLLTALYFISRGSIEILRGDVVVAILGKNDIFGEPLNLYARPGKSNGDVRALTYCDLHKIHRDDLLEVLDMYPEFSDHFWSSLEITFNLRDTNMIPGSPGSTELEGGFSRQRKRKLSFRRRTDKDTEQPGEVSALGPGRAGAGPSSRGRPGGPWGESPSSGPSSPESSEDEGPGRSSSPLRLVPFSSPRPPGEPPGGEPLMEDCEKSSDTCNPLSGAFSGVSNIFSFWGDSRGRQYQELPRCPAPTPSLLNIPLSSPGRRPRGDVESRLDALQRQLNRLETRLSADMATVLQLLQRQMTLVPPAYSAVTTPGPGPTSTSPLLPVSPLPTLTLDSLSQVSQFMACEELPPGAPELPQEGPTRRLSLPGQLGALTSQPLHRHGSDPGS

| SMILES | hERG current change (%, negative = inhibition) at 1uM [%] |
| --- | --- |
| COc1ccc(N2CCN(c3nc(NCCc4ccc(OC)c(OC)c4)nc(OC)n3)CC2)cc1 | -42.1 |
| O=c1c2ccccc2c(/C=N/c2nnc(Cc3ccccc3)s2)c(O)n1-c1ccc(Cl)cn1 | 11.3 |
| COc1cc(C(=O)N(C)CCOc2ccccc2)ccc1OCC(=O)Nc1cccc(C(F)(F)F)c1 | 3.32 |
| Cc1ccc(CNC(=O)C2CC(=O)OC23CCCC3)c(C)c1 (stereo not drawn) | 6.84 |
| O=C(CN(C(=O)CSc1nc2ccccc2o1)c1ccccc1F)NC1CCCCC1 | 7.57 |
| CS(=O)(=O)NNP(=O)(NNS(C)(=O)=O)NC(=O)c1ccc(Br)cc1 | 13 |
| Cc1cc2nc(SCC(=O)O)nc(C)c2cc1C | 13.4 |
| O=C(/C=C/Nc1ccc(F)cc1)c1ccc(Oc2ncccn2)cc1 | 14.8 |
| CC1CCC(C(C)C)C(OC(=O)Cn2c(-c3ccccc3)[n+](C)c3ccccc32)C1.[Cl-] (stereo not drawn) | -42.1 |
| CCC(C)(C(=O)Nc1c(C)cccc1C)N(C)C(=O)c1ccc2ccccc2n1 (stereo not drawn) | 13.7 |
| CN1CCOCCOCCN(C)C(=O)N2CCOCCOCCN(CCOCC2)C1=O | 11.8 |
| Nc1c(C(=O)Nc2cccc(F)c2)nnn1-c1ccc2c(c1)OCCO2 | 14.2 |
| O=C(N/N=C\c1cn[nH]c1-c1ccccc1)c1cccs1 | 12.2 |
| O=C(COc1ccc(/C=C\[N+](=O)[O-])cc1)N1CCOCC1 | 9.7 |
| O=c1cc(O)nc(SC23CC4CC(CC(C4)C2)C3)[nH]1 | 10.2 |
| Cc1cccc(NC(=S)N2CCN(c3ccccc3)CC2)c1 | 15.4 |
| Cc1ccc(S(=O)(=O)c2c(C)cc(C)[nH]c2=O)c(C)c1 | 6.96 |
| O=C(c1cccc(S(=O)(=O)Nc2ccc(F)cc2)c1)N1CCOCC1 | 14 |
| Cc1ccc(Cn2ncn(-c3ccccc3)c2=O)cc1 | 10 |
| CCOC(=O)NNC1CC(=O)N(c2ccc(OC)cc2)C1=O (stereo not drawn) | 17.2 |
| O=C1N/C(=N\N=C\c2ccccn2)SC1Cc1cccc(SC(F)F)c1 (stereo not drawn) | 3.61 |
| COc1ccc(CC(=O)NNc2ncnc3c2cnn3-c2ccccc2)cc1 | 11.4 |
| CCOC(=O)c1ccc(NC(=O)CSC2=NN3CCCC(=O)N=C3S2)cc1 | 15.7 |
| S=C(NCC1CCCO1)N1CCN(c2nc(-c3ccccc3)cs2)CC1 (stereo not drawn) | 11.6 |
